Source: PubChem BioAssay AID1347073 (National Center for Advancing Translational Sciences (NCATS), 2019)
The whole screen tested about 45,000 compounds, of which about 200 (0.44%) were called active. Another 7% or so got no clear call; they are omitted. The call rests on the fitted dose curve; in most records, active means well fitted activation curve with a large enough effect; inconclusive means small, poorly fitted or top-dose-only effect; inactive means no such curve, though single readings can be large or run the other way. The list shows a part of the results.

Experiment: qHTS of TDP-43 Inhibitors: NCGC Sytravon Library Screen; further: 0% is about no effect; nearly all actives have a fitted effect of over 55% in size
Settings: yeast TDP-43 toxicity rescue, BacTiter-Glo growth, 24 h; series mostly up to 46.1 µM; growth rescue (activation): at the top concentration
Procedure, shortened: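 TDP-43-expressing yeast, pregrown in raffinose, seeded at OD600 0.02 in galactose medium with compound for 24 hr at 30 deg C. Growth read by BacTiter-Glo luminescence, so rescue of toxicity appears as activation.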

SMILES	growth rescue (activation)
Cc1noc(NS(=O)(=O)c2ccc(NC(=O)c3ccc(Cl)c(S(=O)(=O)N(C)c4ccccc4)c3)cc2)c1C	inactive: 24.8%
CCOc1ccc(NC(=O)C(=O)N/N=C\c2ccc(CNS(=O)(=O)c3ccccc3)o2)cc1	inactive: 13.4%
O=c1cc(CN2CCCCC2)nc(C2CC2)[nH]1	inactive: -15.2%
O=C(O)CCCC(=O)N1N=C(c2ccccc2)CC1c1cccs1 (stereo not drawn)	inactive: 1.69%
N#CCCn1cc(C(=O)N2CCOCC2)c(-c2ccc3c(c2)OCCO3)n1	inactive: 9.4%
COc1cc(CNC(=O)c2cc(-c3cc(F)ccc3OCC3CCCO3)n[nH]2)cc(OC)c1 (stereo not drawn)	inactive: 10%
COc1ccc(NC(C)=O)cc1S(=O)(=O)Nc1ccc(OCc2ccccc2)cc1	inactive: 0.952%
O=C(CS(=O)(=O)c1ccccc1)Nc1nnc(C(F)(F)F)s1	inactive: 16.6%
C=CCN(C(=O)C1=NN(C2CCS(=O)(=O)C2)C(=O)CC1)c1nc(-c2ccc([N+](=O)[O-])cc2)cs1 (stereo not drawn)	inactive: 14%
CCCn1c(SCC(=O)N2CCc3ccccc32)n[nH]c1=O	inactive: 1.36%
CCC1=NN2C(=N)/C(=C\c3cccn3-c3ccc(C)c(C)c3)C(=O)N=C2S1	inactive: -6.87%
CC(C)(C)C(=O)NC(CC(=O)O)c1ccccc1 (stereo not drawn)	inactive: 7.2%
CN(C)S(=O)(=O)c1ccc(NC(=S)NC(=O)Cc2ccccc2)cc1	inactive: -6.97%
Cc1ccc(O)c(C2=Nc3ccccc3N=C(c3ccco3)C2)c1	inactive: 24.3%
CC1CCc2c(sc(NC(=O)c3cccn3C)c2C(N)=O)C1 (stereo not drawn)	inactive: 17.8%
COCCn1nnnc1C(CC(C)C)N1CCN(c2nc3ccccc3s2)CC1 (stereo not drawn)	inactive: 5.53%
N#CC1(C#N)C(C(N)=O)C1c1ccccc1 (stereo not drawn)	inactive: 12.4%
CCc1nnc(N2C(=N)SCC2=O)s1	inactive: -8.08%
Cn1c(CNC(=O)c2ccc(Cl)cc2)nnc1SCC(=O)NC1CCCC1	inactive: 14%
O=S(=O)(c1cccc2c(S(=O)(=O)N3CCCC3)cccc12)N1CCCC1	inactive: 2.53%
Cc1cc(=O)oc2cc(OCC(=O)N3CCCc4ccccc43)ccc12	inactive: 20.9%
CCCOc1ccc(/C(O)=C2/C(=O)C(=O)N(CCCn3ccnc3)C2c2cccnc2)cc1 (stereo not drawn)	inactive: 10.8%

SMILES	growth rescue (activation)
CC1CCCC(C)N1/N=C/c1ccccc1OC(F)F (stereo not drawn)	inactive: 16.1%
Cc1nc2sccn2c(=O)c1Br	inactive: 5.2%
O=S(=O)(c1ccc(F)cc1)N1CCN(CCOc2ccccc2)CC1	inactive: 11.1%
CC(C)c1ccc(NC(=O)c2cc3c(=O)n(C)c4ccccc4c3n2C)cc1	inactive: 28.7%
COC(=O)c1cc(Cl)c(NC(=O)/C=C/c2ccc(Cl)cc2Cl)cc1OC	inactive: 9.46%
CCOC(=O)c1ccc(NC(=O)C(=O)NCc2ccco2)cc1	inactive: 10.5%
Cc1ccc(-c2[nH]c(=O)n3ccncc23)s1	inactive: 8.8%
Cc1ccsc1C(=O)OCC(=O)NC1CC1	inactive: 15%
CC(OC(=O)c1ccc2c(c1)NC(=O)CS2)C(=O)c1ccc(F)cc1 (stereo not drawn)	inactive: 11.2%
CCCN(CCC)Cc1c(C(=O)N/N=C/c2c[nH]c3ccccc23)nnn1-c1nonc1N	inactive: 0.72%
CC1CN(C(=O)COC(=O)Cc2c(Cl)cccc2Cl)CC(C)O1 (stereo not drawn)	inactive: -5.52%
CCOC(=O)C1C(c2ccc([N+](=O)[O-])cc2)C2C(=O)NN=C2CC1(C)O (stereo not drawn)	inactive: 12.4%
O=C(NCc1ccc2c(c1)OCO2)C1CC(=O)N(c2ccc(Cl)cc2)C1 (stereo not drawn)	inactive: 13.1%
Cc1ccnc(NS(=O)(=O)c2ccc(NS(=O)(=O)Cc3ccccc3)cc2)n1	inactive: 14.4%
CCN1C(=O)CC(C(=O)Nc2ccc(F)cc2)SC1=Nc1ccc2c(c1)OCO2 (stereo not drawn)	inactive: 9.14%
O=S(=O)(/N=C(\[O-])C[n+]1ccccc1)c1ccc(Cl)cc1	inactive: -5.69%
O=C(CSc1nc2sc3c(c2c(=O)[nH]1)CCC3)NCCO	inactive: -1.06%
O=C(CNc1ccccc1N1CCCC1=O)Nc1cc(C(F)(F)F)ccc1-n1cncn1	inactive: 16.3%
CC1=CCC2C(=O)N(c3ccc4ccccc4n3)C(=O)C2C1 (stereo not drawn)	inactive: 4.76%
Cc1noc(C)c1C(=O)OCC(=O)NC1CCCCC1C (stereo not drawn)	inactive: -3.89%
Cc1oc2cc(O)ccc2c(=O)c1-c1nncn1-c1ccccc1	inactive: -13.1%
Cc1ccc(CCNC(=O)CCSCc2ccc(Cl)cc2)cc1	inactive: 7.35%

SMILES	growth rescue (activation)
CC(C)(C)C(=O)N1CCN(c2ccc(NC(=O)c3ccc4c(c3)OCCO4)cc2)CC1	inactive: 3.35%
CCc1nc(N2CCOCC2)c(C#N)c2c1COC(C)(C)C2	inactive: 26.1%
O=C(CCc1nnc(-c2ccccc2)o1)NCc1cc(F)ccc1F	inactive: 23.9%
CCCC(C(=O)NCC1CCCO1)N(Cc1ccccc1)C(=O)CNS(=O)(=O)c1ccccc1 (stereo not drawn)	inactive: 3.05%
C[N+]1(C)CC2=Cc3ccccc3CC2C1 (stereo not drawn)	inactive: -21.3%
CCCCC(=O)NC(=S)Nc1cccc(C(=O)O)c1	inactive: 12.8%
CC(=O)NC(c1ccccc1)c1nc(-c2ccccc2)cs1 (stereo not drawn)	inactive: 20.2%
COc1cc(C(C)=O)ccc1OCC(O)CN1CCN(c2ccc(F)cc2)CC1 (stereo not drawn)	inactive: 10.7%
CC(=O)NC(NC(=S)Nc1ccccc1Br)C(Cl)(Cl)Cl (stereo not drawn)	inactive: 17.4%
COc1cc(Cl)cc(/C=C/c2ccc3cccc(O)c3n2)c1OC	inactive: 12.6%
O=C(c1ccncc1)N1N=C(c2ccc(Cl)cc2)CC1c1ccccc1O (stereo not drawn)	inactive: 35.4%
CCN1/C(=C/c2ccc3ccc(C)cc3[n+]2CC)Sc2ccccc21	inactive: -91.8%
CC(=O)Nc1cccc(-c2ccnc3c2CC(C(=O)Nc2cccc(Oc4ccccc4)c2)O3)c1 (stereo not drawn)	inactive: 11.4%
Clc1ccc(C2=NNC(=NCC3CCCO3)SC2)cc1 (stereo not drawn)	inactive: 16.2%
COCCCNC(=O)c1c(N)n(/N=C/c2cccnc2)c2nc3ccccc3nc12	inactive: 41.9%
S=c1nc(C2CC2)n(-c2ccccc2)[nH]1	inactive: 1.74%
Cc1cc(N2CCOCC2)ccc1/C=C1\NC(=O)N(Cc2ccccc2F)C1=O	inactive: 8.26%
Cn1cc(CN2CCN(Cc3cccnc3)CC2)c(-c2ccc3c(c2)OCCO3)n1	inactive: 14.5%
CC(=O)c1ccc[n+](CC(=O)NC(C)c2ccccc2)c1 (stereo not drawn)	inactive: -2.36%
N=c1n(CCCOc2ccc(F)cc2)c2ccccc2n1CC(N)=O	inactive: 23.1%
CC(=O)Nc1ccc(S(=O)(=O)N2CCC(C(=O)NCCc3ccc(Cl)cc3)CC2)cc1	inactive: 4.2%
O=C(COC(=O)COc1ccc(Cl)cc1Br)NCc1cccs1	inactive: -11.4%

SMILES	growth rescue (activation)
CCC(C)c1ccc(NC(=O)c2[nH]c(C)c(C(C)=O)c2C)cc1 (stereo not drawn)	inactive: 27.2%
O=C(O)c1cccc(-c2csc(C(O)c3ccccc3)n2)c1 (stereo not drawn)	inactive: 15.1%
CCOc1ccc(NC(=O)CN2C(=O)C(c3ccccc3)=NC23CCCCCC3)cc1	inactive: 23.3%
O=C(Nc1cccc(Cl)c1)Nc1ccc2c(c1)C(=O)OC2	inactive: -3.54%
CC1(C(=O)Nc2ccc3c(c2)OCCO3)CCN1Cc1ccccc1OC(F)F (stereo not drawn)	inactive: 2.04%
CCN1CCN(C(=S)NC(=O)c2cc(OC)c(OC)c(OC)c2)CC1	inactive: 12%
COc1ccc(Br)cc1CN(C)CC(=O)Nc1cccc(S(=O)(=O)N2CCCC2)c1	inactive: -4.38%
CCC(C)NC(=O)CC(c1ccccc1)c1cc(C)ccc1O (stereo not drawn)	inactive: 3.35%
Cc1cc(C)c2c(c1)N[C@H](c1cccs1)[C@@H]1CCO[C@H]21	inactive: 10.6%
COc1cccc(NC(=O)COc2ccccc2C(N)=O)c1	inactive: 16.5%
COc1ccc(S(=O)(=O)N2CCC(Nc3ccccc3Cl)CC2)cc1	inactive: 15.5%
Cc1ccc(S(=O)(=O)N2CCN(CC(=O)NC(C)c3ccccc3)CC2)cc1 (stereo not drawn)	inactive: 4.7%
Cc1cc(=O)oc2cc(OCC(=O)NC3CCCCC3)c(Cl)cc12	inactive: 3.71%
COc1ccc(CCNC(=O)C(C)Sc2ccccc2)cc1OC (stereo not drawn)	inactive: -12.3%
CC(C)(C)c1ccc(C(=O)NCC(=O)N/N=C/c2cccnc2)cc1	inactive: 3.9%
Cc1cc(NC(c2cccnc2)c2ccc3cccnc3c2O)no1 (stereo not drawn)	inactive: 0.0813%
CC(=O)Nc1ccc(OCc2nnc(-c3ccc(Cl)cc3)o2)cc1	inactive: 37.6%
COc1ccc(NC(=O)NCc2ccc3c(c2)OCO3)cc1	inactive: 3.47%
CC1CCC(C(=O)NC(C(=O)Nc2ccccn2)C(C)C)CC1 (stereo not drawn)	inactive: 10.1%
O=C(c1ccc(Cl)c(S(=O)(=O)N2CCOCC2)c1)N1CCCCCC1	inactive: 15.5%
COc1ccc(-c2nnc(SCC(=O)NCC3CCCO3)n2C)cc1 (stereo not drawn)	inactive: 2.34%
COc1cc(CNn2c(C)n[nH]c2=S)cc(Cl)c1OCC(=O)NC(C)(C)C	inactive: -13.6%

SMILES	growth rescue (activation)
CC1CN(c2ccccc2)c2nc3c(c(=O)[nH]c(=O)n3C)n2C1 (stereo not drawn)	inactive: -7.45%
CC(=O)c1cccc(NC(=O)c2ccc(OC3CSC3)cc2)c1	inactive: 11.2%
CCc1cc2cc3c(cc2nc1SCC(=O)Nc1c[nH]c(=O)[nH]c1=O)OCO3	inactive: 6.56%
CCOc1ccccc1NC(=O)C1CCN(C(=O)C2CC(=O)N(c3ccc(C)cc3)C2)CC1 (stereo not drawn)	inactive: 9.99%
CC(=O)C(Cc1ccccc1)NC(=O)CN(C)Cc1ccccc1Cl (stereo not drawn)	inactive: -0.359%
COc1cccc(N2C(=O)CC(N3CCN(CCN=CC4=C(O)CC(C)(C)CC4=O)CC3)C2=O)c1 (stereo not drawn)	inactive: 18.7%
CC1CCN(c2ccc([N+](=O)[O-])cc2C(=O)NCC2CCCO2)CC1 (stereo not drawn)	inactive: 18.4%
CCOC(=O)CSc1nc(C)c(Oc2ccc(Cl)cc2Cl)c(=O)[nH]1	inactive: -41.3%
C=CCN1C(=O)/C(=C\C=C2\N(C)c3ccccc3C2(C)C)SC1=S	inactive: -1.85%
CCn1c(CNC(=O)c2ccccc2F)nnc1SCC(=O)Nc1nncs1	inactive: -6.62%
COc1cc(-c2cc3nc(NCCc4ccncc4)ccn3n2)cc(OC)c1OC	inactive: 1.21%
COc1ccc(C)cc1NC(=O)CN(C)C1CCCCC1	inactive: 1.82%
NC(=O)c1ccc2nc(NC(=O)c3ccc(N)cc3)sc2c1	inactive: 1.11%
COc1ccccc1-c1c(C(F)(F)F)oc2cc(OCC(=O)Nc3ccccc3C(F)(F)F)ccc2c1=O	inactive: 18.4%
COc1ccccc1/C=C/C(=O)NCC(=O)n1nc(C)cc1C	inactive: -4%
O=C(NN1C(=O)C2C3c4ccccc4C(c4ccccc43)C2C1=O)c1ccccc1 (stereo not drawn)	inactive: 5.27%
O=C(NC(=S)Nc1ccc(CN2CCOCC2)cc1)c1ccc(-c2ccc(Br)cc2)o1	inactive: 10.3%
Cc1ccsc1C1C(C#N)=C(N)N(N(C)C)C2=C1C(=O)CC(C)(C)C2 (stereo not drawn)	inactive: 10.2%
COc1ccc(/C=C(/NC(=O)c2ccccc2)C(=O)N2CCCC2)cc1	inactive: 0.125%
N#Cc1ccc(OCC(=O)OCC(=O)Nc2cc(C(F)(F)F)ccc2N2CCOCC2)cc1	inactive: 14.5%
